# Laboratory results: patent US10858366B2 (priority 2016, dated 2020)
# How the values were obtained:
# Assay in all cases: microbe, parasite or virus in culture
# [1] = system: NA_VIR_H3N2 (influenza virus in MDCK cells); conditions: unidentified influenza virus, 48 h, read-out: NA_VIR_H3N2 EC50
# [2] = system: NA_VIR_H1N1 (influenza virus in MDCK cells); conditions: unidentified influenza virus, 48 h, read-out: NA_VIR_H1N1 EC50
# [3] = system: NA_Hubei (influenza virus in MDCK cells); conditions: unidentified influenza virus, 48 h, read-out: NA_Hubei EC50
SMILES,EC50 [1],EC50 [2],EC50 [3]
"CN(C)Cc1cnc2n1C[C@H](C(c1ccccc1)c1ccccc1)n1ccc(=O)c(O)c1-2 [Example 64, (S)-6-benzhydryl-3-((dimethylamino)methyl)-11-hydroxy-5,6-dihydro-10H-imidazo[1,2-a]pyrido[2,1-c]pyrazin-10-one]",4300 nM,1700 nM,2400 nM
"O=c1ccn2c(c1O)-c1ncc(CO)n1C[C@@H]2C(c1ccccc1)c1ccccc1 [Example 54, (S)-6-benzhydryl-11-hydroxy-3-(hydroxymethyl)-5,6-dihydro-10H-imidazo [1,2-a]pyrido[2,1-c]pyrazin-10-one]",4600 nM,2600 nM,1600 nM
"COCCNC(=O)c1cnc2n1C[C@H](C(c1ccccc1)c1ccccc1)n1ccc(=O)c(O)c1-2 [Example 71, (S)-6-benzhydryl-11-hydroxy-N-(2-methoxyethyl)-10-oxo-5,6-dihydro-10H-imidazo[1,2-a]pyrido[2,1-c]pyrazine-3-carboxamide]",> 50000 nM,19000 nM,27000 nM
"O=c1cnn2c(c1O)-c1ncc(Br)n1C[C@@H]2C(c1ccc(F)cc1)c1ccc(F)cc1 [Example 47, (S)-6-(bis(4-fluorophenyl)methyl)-3-bromo-11-hydroxy-5,6-dihydro-10H-imidazo[2′,1′:3,4]pyrazino[1,2-b]pyridazin-10-one]",840 nM,290 nM,560 nM
"CNC(=O)c1cnc2n1C[C@H](C(c1ccccc1)c1ccccc1)n1ccc(=O)c(O)c1-2 [Example 69, (S)-6-benzhydryl-11-hydroxy-N-methyl-10-oxo-5,6-dihydro-10H-imidazo[1,2-a]pyrido[2,1-c]pyrazine-3-carboxamide]",> 50000 nM,15000 nM,14000 nM
"O=c1ccn2c(c1O)-c1ncc(CN3CCOCC3)n1C[C@@H]2C(c1ccccc1)c1ccccc1 [Example 67, (S)-6-benzhydryl-11-hydroxy-3-(morpholinomethyl)-5,6-dihydro-10H-imidazo[1,2-a]pyrido[2,1-c]pyrazin-10-one]",10000 nM,4100 nM,3800 nM
"CNCc1cnc2n1C[C@H](C(c1ccccc1)c1ccccc1)n1ccc(=O)c(O)c1-2 [Example 61, (S)-6-benzhydryl-11-hydroxy-3-((methylamino)methyl)-5,6-dihydro-10H-imidazo[1,2-a]pyrido[2,1-c]pyrazin-10-one]",5700 nM,2300 nM,3400 nM
"O=c1ccn2c(c1O)-c1nccn1C1(COC1)N2C(c1ccccc1)c1ccccc1 [Example 79, 6-benzhydryl-11-hydroxy-6H,10H-spiro[imidazo[1,2-d]pyrido[2,1-f][1,2,4]triazine-5,3′-oxetan]-10-one]",1500 nM,610 nM,390 nM
"Cn1cnc2c1CN(C(c1ccccc1)c1ccccc1)n1ccc(=O)c(O)c1-2 [Example 82, 5-benzhydryl-10-hydroxy-3-methyl-4,5-dihydroimidazo[4,5-d]pyrido[1,2-b]pyridazin-9(3H)-one]",4000 nM,1000 nM,1400 nM
"CN(C)C(=O)c1cnc2n1C[C@H](C(c1ccccc1)c1ccccc1)n1ccc(=O)c(O)c1-2 [Example 68, (S)-6-benzhydryl-11-hydroxy-N,N-dimethyl-10-oxo-5,6-dihydro-10H-imidazo[1,2-a]pyrido[2,1-c]pyrazine-3-carboxamide]",32000 nM,6300 nM,17000 nM
"O=c1cnn2c(c1O)-c1nccn1C[C@@H]2[C@@H](c1ccc(F)cc1)c1cccc(Br)c1 [Example 30, (S)-6-((S)-(3-bromophenyl)(4-fluorophenyl)methyl)-11-hydroxy-5,6-dihydro-10H-imidazo[2′,1′:3,4]pyrazino[1,2-b]pyridazin-10-one]",190 nM,45 nM,65 nM
"O=c1ccn2c(c1O)-c1ncc(CNC3CCCCC3)n1C[C@@H]2C(c1ccccc1)c1ccccc1 [Example 63, (S)-6-benzhydryl-3-((cyclohexylamino)methyl)-11-hydroxy-5,6-dihydro-10H-imidazo[1,2-a]pyrido[2,1-c]pyrazin-10-one]",6100 nM,3200 nM,3900 nM
"O=c1ccn2c(c1O)-c1ncc(C(F)(F)F)n1C[C@@H]2C(c1ccccc1)c1ccccc1 [Example 58, (S)-6-benzhydryl-11-hydroxy-3-(trifluoromethyl)-5H-imidazo[1,2-a]pyrido[2,1-c]pyrazin-10(6H)-one]",1800 nM,200 nM,820 nM
"N#Cc1cnc2n1C[C@H](C(c1ccccc1)c1ccccc1)n1ccc(=O)c(O)c1-2 [Example 59, (S)-6-benzhydryl-11-hydroxy-10-oxo-5,6-dihydro-10H-imidazo[1,2-a]pyrido[2,1-c]pyrazine-3-carbonitrile]",5700 nM,1400 nM,1200 nM
